Data published in article PMC10317990.
These are yes or no findings as the source states them, for the method shown. In cells and extracts the contact can be indirect. Some entries that bind do so weakly or less than the wild type.

Amino acid sequences for entries named in this document (tags omitted). A change or cut given only in a name is not applied to a line headed by its entry. Chains listed by the source or under a name are the forms on record and can include a tag or linker. Residues count along the entry.
UniProt Q13761: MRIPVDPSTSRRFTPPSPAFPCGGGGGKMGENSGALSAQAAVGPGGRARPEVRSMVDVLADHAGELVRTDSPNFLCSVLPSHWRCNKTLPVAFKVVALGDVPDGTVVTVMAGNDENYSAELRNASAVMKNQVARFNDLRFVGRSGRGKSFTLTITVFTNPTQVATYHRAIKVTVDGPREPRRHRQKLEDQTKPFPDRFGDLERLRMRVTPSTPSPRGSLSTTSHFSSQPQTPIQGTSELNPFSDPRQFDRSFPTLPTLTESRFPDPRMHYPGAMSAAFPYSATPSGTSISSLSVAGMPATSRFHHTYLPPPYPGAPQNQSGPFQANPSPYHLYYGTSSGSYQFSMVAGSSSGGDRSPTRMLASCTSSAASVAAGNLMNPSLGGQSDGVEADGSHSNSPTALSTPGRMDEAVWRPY
FLAG-tagged RUNX3 truncation (aa 1-187): residues 1-187 of Q13761
UniProt P01106, residues 16-454: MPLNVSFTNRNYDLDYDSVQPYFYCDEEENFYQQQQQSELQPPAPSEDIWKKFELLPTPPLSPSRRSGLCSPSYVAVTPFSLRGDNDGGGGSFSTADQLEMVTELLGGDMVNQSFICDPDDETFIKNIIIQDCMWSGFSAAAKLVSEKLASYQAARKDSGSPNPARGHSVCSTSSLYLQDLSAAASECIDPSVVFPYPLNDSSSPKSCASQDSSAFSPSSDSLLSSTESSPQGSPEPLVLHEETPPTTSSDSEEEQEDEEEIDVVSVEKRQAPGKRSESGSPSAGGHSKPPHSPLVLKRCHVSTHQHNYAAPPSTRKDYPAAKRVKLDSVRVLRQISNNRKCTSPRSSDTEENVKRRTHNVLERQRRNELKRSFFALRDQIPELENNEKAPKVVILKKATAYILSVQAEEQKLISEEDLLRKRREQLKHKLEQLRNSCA

Assays:
[1] = target: FLAG-tagged RUNX3 (human) (UniProt Q13761); experiment: co-IP; HEK293T cells transfected with the indicated plasmids, lysed 24 h later; 400 µg lysate, 90 min with anti-HA affinity gel or Flag M2 affinity gel in 25 mM Tris pH 8.0, 0.15 M NaCl, 0.25 mM EDTA, 2.5% glycerol, 0.25% NP40, 1 mM DTT; Benzonase in the lysis buffer; immunoblot
FLAG-tagged MYC = FLAG-tagged MYC (UniProt P01106); experiment: as above
[2] = target: FLAG-tagged RUNX3 truncation (aa 1-187) (human) (UniProt Q13761); experiment: as above
[3] = target: endogenous RUNX3 (human (endogenous in HGC27)) (UniProt Q13761); experiment: proximity ligation; Duolink in situ PLA on HGC27 cells, endogenous proteins, pairs of primary antibodies
[4] = target: endogenous RUNX3 (human (endogenous in HGC27)) (UniProt Q13761); experiment: co-IP; endogenous proteins, 1 mg HGC27 whole-cell lysate, anti-RUNX3 antibody (D9K6L) or normal IgG overnight at 4 °C, Dynabeads Protein G; immunoblot

Row | binding [1] | binding (FLAG-tagged MYC) | binding [2] | binding [3] | binding [4] | Binder
1 | binds | binds | binds |  |  | MIZ-1 (protein, UniProt Q13105 1-803) MDFPQHSQHVLEQLNQQRQLGLLCDCTFVVDGVHFKAHKAVLAACSEYFKMLFVDQKDVVHLDISNAAGLGQVLEFMYTAKLSLSPENVDDVLAVATFLQMQDIITACHALKSLAEPATSPGGNAEALATEGGDKRAKEEKVATSTLSRLEQAGRSTPIGPSRDLKEERGGQAQSAASGAEQTEKADAPREPPPVELKPDPTSGMAAAEAEAALSESSEQEMEVEPARKGEEEQKEQEEQEEEGAGPAEVKEEGSQLENGEAPEENENEESAGTDSGQELGSEARGLRSGTYGDRTESKAYGSVIHKCEDCGKEFTHTGNFKRHIRIHTGEKPFSCRECSKAFSDPAACKAHEKTHSPLKPYGCEECGKSYRLISLLNLHKKRHSGEARYRCEDCGKLFTTSGNLKRHQLVHSGEKPYQCDYCGRSFSDPTSKMRHLETHDTDKEHKCPHCDKKFNQVGNLKAHLKIHIADGPLKCRECGKQFTTSGNLKRHLRIHSGEKPYVCIHCQRQFADPGALQRHVRIHTGEKPCQCVMCGKAFTQASSLIAHVRQHTGEKPYVCERCGKRFVQSSQLANHIRHHDNIRPHKCSVCSKAFVNVGDLSKHIIIHTGEKPYLCDKCGRGFNRVDNLRSHVKTVHQGKAGIKILEPEEGSEVSVVTVDDMVTLATEALAATAVTQLTVVPVGAAVTADETEVLKAEISKAVKQVQEEDPNTHILYACDSCGDKFLDANSLAQHVRIHTAQALVMFQTDADFYQQYGPGGTWPAGQVLQAGELVFRPRDGAEGQPALAETSPTAPECPPPAE
2 |  |  |  | binds | binds | endogenous MIZ-1 (protein, UniProt Q13105 1-803) MDFPQHSQHVLEQLNQQRQLGLLCDCTFVVDGVHFKAHKAVLAACSEYFKMLFVDQKDVVHLDISNAAGLGQVLEFMYTAKLSLSPENVDDVLAVATFLQMQDIITACHALKSLAEPATSPGGNAEALATEGGDKRAKEEKVATSTLSRLEQAGRSTPIGPSRDLKEERGGQAQSAASGAEQTEKADAPREPPPVELKPDPTSGMAAAEAEAALSESSEQEMEVEPARKGEEEQKEQEEQEEEGAGPAEVKEEGSQLENGEAPEENENEESAGTDSGQELGSEARGLRSGTYGDRTESKAYGSVIHKCEDCGKEFTHTGNFKRHIRIHTGEKPFSCRECSKAFSDPAACKAHEKTHSPLKPYGCEECGKSYRLISLLNLHKKRHSGEARYRCEDCGKLFTTSGNLKRHQLVHSGEKPYQCDYCGRSFSDPTSKMRHLETHDTDKEHKCPHCDKKFNQVGNLKAHLKIHIADGPLKCRECGKQFTTSGNLKRHLRIHSGEKPYVCIHCQRQFADPGALQRHVRIHTGEKPCQCVMCGKAFTQASSLIAHVRQHTGEKPYVCERCGKRFVQSSQLANHIRHHDNIRPHKCSVCSKAFVNVGDLSKHIIIHTGEKPYLCDKCGRGFNRVDNLRSHVKTVHQGKAGIKILEPEEGSEVSVVTVDDMVTLATEALAATAVTQLTVVPVGAAVTADETEVLKAEISKAVKQVQEEDPNTHILYACDSCGDKFLDANSLAQHVRIHTAQALVMFQTDADFYQQYGPGGTWPAGQVLQAGELVFRPRDGAEGQPALAETSPTAPECPPPAE
